Source: PMC4336329 (PLoS ONE, 2015)
Hit rate of the full screen: of about 310,000 compounds, about 2,200 (0.71%) showed an effect of 50% or more. The effect is printed as a negative number. Some of the results follow.

molecular target: human ether-à-go-go-related gene (hERG) potassium channel (human, UniProt Q12809); assay: primary screen, population patch clamp on CHO cells stably expressing hERG
Sequence (Q12809 whole entry, looked up): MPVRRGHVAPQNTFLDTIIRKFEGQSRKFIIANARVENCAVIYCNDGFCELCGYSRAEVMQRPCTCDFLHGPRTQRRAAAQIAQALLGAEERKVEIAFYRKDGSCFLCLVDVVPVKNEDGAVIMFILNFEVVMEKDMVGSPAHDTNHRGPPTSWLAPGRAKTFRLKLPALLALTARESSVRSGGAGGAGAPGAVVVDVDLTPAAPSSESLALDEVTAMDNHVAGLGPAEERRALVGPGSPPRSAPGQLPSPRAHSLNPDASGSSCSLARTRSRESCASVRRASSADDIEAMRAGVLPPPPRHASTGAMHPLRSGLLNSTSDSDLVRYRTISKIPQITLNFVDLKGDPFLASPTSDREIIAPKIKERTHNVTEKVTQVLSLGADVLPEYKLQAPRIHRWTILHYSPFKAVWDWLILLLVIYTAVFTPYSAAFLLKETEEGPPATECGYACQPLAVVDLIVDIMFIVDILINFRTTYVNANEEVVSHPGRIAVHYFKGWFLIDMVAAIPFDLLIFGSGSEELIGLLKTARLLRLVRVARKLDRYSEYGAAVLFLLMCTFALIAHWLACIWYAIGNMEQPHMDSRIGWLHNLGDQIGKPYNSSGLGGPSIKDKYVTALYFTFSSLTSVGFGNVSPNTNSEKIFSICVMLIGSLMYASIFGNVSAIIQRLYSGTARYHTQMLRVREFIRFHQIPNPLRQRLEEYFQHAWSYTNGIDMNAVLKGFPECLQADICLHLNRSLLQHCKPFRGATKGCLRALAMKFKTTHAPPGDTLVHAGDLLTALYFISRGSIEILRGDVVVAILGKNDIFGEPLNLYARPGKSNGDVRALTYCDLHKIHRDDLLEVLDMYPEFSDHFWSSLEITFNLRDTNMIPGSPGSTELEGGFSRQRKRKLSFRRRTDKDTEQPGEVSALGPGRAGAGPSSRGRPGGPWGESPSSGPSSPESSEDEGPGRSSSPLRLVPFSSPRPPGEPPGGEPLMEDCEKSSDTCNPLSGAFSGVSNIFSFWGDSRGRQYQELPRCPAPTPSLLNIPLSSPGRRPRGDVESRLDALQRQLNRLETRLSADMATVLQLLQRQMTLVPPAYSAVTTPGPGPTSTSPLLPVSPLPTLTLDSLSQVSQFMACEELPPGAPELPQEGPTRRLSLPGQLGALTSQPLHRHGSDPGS

Point of comparison: `CCOC(=O)c1ccccc1NC(=O)COC(=O)CN1C(=O)NC2(CCCC2)C1=O`, “hERG current change (%, negative = inhibition) at 1uM” value 1.63%. Against it:
- CCCOc1ccc(/C=N/NC(=O)CSc2ccccn2)cc1OC — higher, 12.1%
- O=[N+]([O-])c1ccc(N2CCNCC2)cc1NCc1cccnc1 — higher, 6.58%
- CC(Oc1ccc2c3c(c(=O)oc2c1)CCC3)C(=O)NCCN1CCOCC1 (stereo not drawn) — higher, 17.8%
- O=C(N/N=C/c1cccc([N+](=O)[O-])c1)C(=O)N1CCCCCC1 — lower, -22%
- Cc1cc(C(=O)COC(=O)C23CC4CC(CC(O)(C4)C2)C3)c(C)n1-c1c(C)n(C)n(-c2ccccc2)c1=O — higher, 10.6%
- CCOC(=O)c1nnn(-c2nonc2N)c1C — higher, 5.7%
- NNC(=S)NC1CCCCCCCCCCC1 — lower, -3.63%
- O=C(Cn1c(=O)oc2cc(S(=O)(=O)N3CCc4ccccc43)ccc21)N1CCCCC1 — higher, 9.27%
- O=C1CC(c2cccc(Br)c2)C2=C(COC2=O)N1 (stereo not drawn) — higher, 3.73%
- Cc1nnc(C)n1/N=C/c1cc(Br)ccc1O — higher, 15.9%
- CN(NS(=O)(=O)c1ccc(Cl)cc1)c1cnn(C)c(=O)c1Cl — higher, 15.8%
- C=CCn1c(=O)/c(=C/c2ccc(C)o2)s/c1=C(/C#N)C(=O)c1ccccc1 — higher, 12.7%
- CCOC(=O)C1=NNC2(c3ccc(C)cc3)C(=O)N(c3ccccc3)C(=O)C12 (stereo not drawn) — higher, 7.73%
- N#CCCN(CCC#N)c1nnc(-c2ccccc2)s1 — lower, -3.09%
- COc1cccc2[nH]c(C(=O)NCCc3ccccc3)cc12 — higher, 3.62%
- CCN(CCn1cccn1)C(=O)CCc1nnc(-c2ccc3c(c2)OCO3)o1 — higher, 7.64%
- O=C(c1ccccc1)N1CCC(=O)N1c1ccccc1 — higher, 8.41%
- CSc1nc2ccc(S(=O)(=O)N3CCc4ccccc43)cc2s1 — lower, -13.1%
- CC(C)(C)n1nnnc1C(c1ccc2ncccc2c1)N1CCC(O)CC1 (stereo not drawn) — higher, 15.4%
- CCSc1nnc(NC(=O)CSc2sc3c(O)cc(=O)[nH]c3c2C#N)s1 — higher, 8.05%
- COc1cccc(NC(=S)N(CCN(C)C)C(C)c2ccco2)c1 (stereo not drawn) — higher, 8.16%
- Cc1cc(C(F)(F)F)c2c(N)c(C(=O)Nc3cc(C)on3)sc2n1 — higher, 11.5%
- COc1cc(OC)c2c(=O)cc(-c3ccccc3)oc2c1 — higher, 4.72%
- CCOC(=O)C1(CCOc2ccccc2)CCN(Cc2ccc(COC)o2)CC1 — lower, -41.9%
- Nc1ccc(N=Nc2ccc(N)cc2)cc1 — higher, 9.95%
- Brc1cccc(Nc2nc(-c3cccnc3)cs2)c1 — higher, 22%
- COc1cc(/C=C/c2nc3ccccc3c(=O)n2-c2ccccc2O)ccc1O — higher, 11.8%
- Cc1c(N2C(=O)CSC2c2ccc(F)cc2)c(=O)n(-c2ccccc2)n1C (stereo not drawn) — higher, 13.7%
- Cl.Clc1ccc(CNC2CN3CCC2CC3)cc1 (stereo not drawn) — lower, -5.15%
- CCCc1nc(SCC(N)=O)[nH]c(=O)c1CC — higher, 9.07%
- COc1ccc(Br)cc1CN(C)CC(=O)NCc1ccc(F)cc1.O=C(O)C(=O)O — higher, 8.2%
- C=CCN1C(=O)c2ccc(C(=O)N3CCN(S(=O)(=O)c4cccc(Cl)c4)CC3)cc2C1=O — higher, 12.4%
- CC(C)Cc1cc(C(=O)NCCc2ccccc2)no1 — higher, 11.9%
- CC(C)c1nc(CNC(=O)CC2C(=O)NCCN2Cc2ccoc2)cs1 (stereo not drawn) — higher, 13.4%
- C=CCN1C(=O)NC(=O)/C(=C/c2ccoc2)C1=O — higher, 9%
- CCCSc1nc(N)c(C#N)c(-c2ccc(C)cc2)c1C#N — higher, 15.6%
- c1ccc(CN2CCC(=NNc3nc4ccccc4[nH]3)CC2)cc1 — higher, 6.93%
- Cc1ccc(NC(=O)COC(=O)Cn2cnc3c2c(=O)n(C)c(=O)n3C)c(Cl)c1 — higher, 13.3%
- CCN=C(NC#N)SCc1c(F)cccc1Cl — higher, 11.8%
- O=S(=O)(NCC1CCCO1)c1ccc2ccccc2c1 (stereo not drawn) — higher, 7.28%
- O=C(c1ccco1)N1N=C(c2ccc(Br)cc2)CC1(O)C(F)(F)F (stereo not drawn) — higher, 14%
- CCOC(=O)CSc1nc(C)cc(Oc2ccc(=O)n(C)n2)n1 — higher, 10.4%
- Cc1ccc(C)c(N2CC(C(=O)Nc3nccs3)CC2=O)c1 (stereo not drawn) — higher, 19.2%
- Cc1ccc(O)c(C(=O)c2cc(C#N)c(=O)n(-c3nccs3)c2)c1 — higher, 11.1%
- CCn1c(NCc2cccc(OC)c2OC)nc2ccccc21 — lower, -3.11%
- CC(=O)OCCNc1cc(SC(C)C)c2nonc2c1[N+](=O)[O-] — higher, 3.63%
- O=C(CSc1nnc2scc(-c3ccccc3)n12)N1CCCc2ccccc21 — lower, -9.77%
- Cc1cccc(C(=O)OCC(=O)c2c(N)n(CC(C)C)c(=O)n(C)c2=O)c1[N+](=O)[O-] — higher, 3.03%
- CCNC(=O)CN(C1CCCCC1)S(C)(=O)=O — lower, 1.29%
- Cc1c(C)c2ccc(OC(C)C(=O)NCCc3c[nH]c4ccccc34)cc2oc1=O (stereo not drawn) — higher, 2.89%
- Clc1ccc(CCC(Cn2ccnc2)Sc2c(Cl)cccc2Cl)cc1.O=[N+]([O-])O (stereo not drawn) — higher, 2.14%
- Cc1ccc(C(=O)OCC(=O)NC2CCCCC2)cc1S(=O)(=O)N1CCCCC1 — higher, 10.9%
- N/C(=N\OC(=O)COc1ccccc1)c1ccc(Cl)cc1 — higher, 9.86%
- O=S(=O)(NC1CCCCC1)c1ccc(-c2csnn2)s1 — lower, 1.02%
- O=C(Nc1ccc(N2CCOCC2)cc1)C1CCN(S(=O)(=O)Cc2ccccc2)CC1 — higher, 19.2%
- CC(=O)OC(COc1ccccc1)Cn1cnc2ccccc21 (stereo not drawn) — higher, 9.27%
- CCN(C(=O)CCc1nnc2ccc(N3CCC4(CC3)OCCO4)nn12)c1ccccc1 — higher, 13.1%
- CCCNC(=O)NCCc1ccncc1 — higher, 3.65%
- CCCNC(=O)NCCc1c(C)[nH]c2ccccc12 — higher, 9.27%
- Cc1cc(C)c2cc3c(N)c(C(=O)N4CCc5ccccc5C4)sc3nc2c1 — higher, 16%
- O=C(Nc1cccc([N+](=O)[O-])c1)c1ccc2c(c1)OCO2 — higher, 3.13%
- COc1cc(N)c(Cc2nccc3cc(OC)c(OC)cc23)cc1OC — higher, 7.99%
- COc1ccc(CCN2CN(S(=O)(=O)c3ccccc3)c3nc4ccccc4nc32)cc1 — lower, -5.62%
- CCN(CC)c1ccc(-c2nnc(SCC(=O)N(CCOC)c3c(N)n(CC(C)C)c(=O)[nH]c3=O)o2)cc1 — lower, -4.49%
- CC(C)CN1C(=O)C(=O)N(CC(=O)N(C)CC(=O)Nc2ccc(F)cc2)C1=O — lower, -2.87%
- COc1ccc(N(Cc2cc3ccccc3[nH]c2=O)S(=O)(=O)c2ccccc2)cc1 — higher, 14.4%
- O=c1[nH]c(N2CCN(c3ccccc3)CC2)nc2c1CCCC2 — higher, 9.91%
- CCOC(=O)C1=C(C)OC(N)=C(C(=O)OCC)C1c1ccncc1 (stereo not drawn) — lower, -1.25%
- CS(=O)(=O)N(CC(=O)N1CCCC1)c1ccc(Cl)cc1Cl — higher, 13.1%
- COc1ccccc1C(=O)NC(=O)COC(=O)Cn1[nH]c(=O)c2ccccc2c1=O — higher, 7.75%
- CCC1=C(OC(=O)N(CC)CC)N2C(=O)OC(=NCCOC)[C@]2(Cc2ccccc2)[C@H]2C1=CC[C@H]1C(=O)N(C)C(=O)[C@H]12 — higher, 5.87%
- COc1ccccc1CN1CCC(CNS(=O)(=O)c2cc(-c3cc(C)no3)ccc2OC)CC1 — lower, -33.2%
- C/C(=N\NC(=O)c1cccnc1)c1c(O)cc(C)oc1=O — higher, 5.67%
- Cc1ccccc1OCC(O)Cn1c2ccccc2c2ccccc21 (stereo not drawn) — higher, 12.1%
- C(=N\Nc1nc(N2CCOCC2)nc(N2CCOCC2)n1)/c1ccco1 — higher, 19.9%
- CC(C)Cn1c(N)c(C(=O)COC(=O)c2ccc(O)cc2)c(=O)n(C)c1=O — lower, 0.0266%
- CN(C(=O)c1ccc(OC2CCN(CCc3ccccc3)CC2)cc1)C1CCOCC1 — lower, 1.29%
- O=C(CC(NC(=O)OCc1ccccc1)C(=O)O)OCc1ccccc1 (stereo not drawn) — higher, 12.5%
- Cc1nc(CCNC(=O)CC2C(=O)NCCN2Cc2ccccc2F)sc1C (stereo not drawn) — higher, 11.1%
- Cc1ccc(C)c(N2CCN(S(=O)(=O)c3ccc4c(c3)NC(=O)CS4)CC2)c1 — higher, 11.2%
- CCN(C(=O)COC(=O)c1cc(-c2ccccc2)nn1-c1ccccc1)C1CCS(=O)(=O)C1 (stereo not drawn) — lower, -1.42%
- CSc1nc(S(=O)(=O)c2ccc(C)cc2)c(Cl)s1 — higher, 8.02%
- CC1=C(C(=O)c2ccccc2)C(c2ccc(OC(F)F)cc2)NC(=S)N1 (stereo not drawn) — higher, 6.14%
- CC1CCN(CCCCOc2ccccc2F)CC1.O=C(O)C(=O)O — higher, 7.61%
- O=S(=O)(c1ccc(Cl)cc1)N1CCn2c1nc1ccccc12 — lower, -0.183%
- COc1ccc(NC(=O)NCc2ccccn2)cc1 — higher, 10.1%
- CN1CCN(c2cn[nH]c(=O)c2Cl)CC1 — higher, 12.5%
- CCCc1ccc(NC(=O)C2CCCN(c3cnccn3)C2)cc1 (stereo not drawn) — higher, 10.1%
- COc1ccc(C2=NOC(C(=O)NCC(C)C)C2)cc1 (stereo not drawn) — higher, 7.35%
